# Measurements published in ChEMBL document CHEMBL1157539, “Thousands of chemical starting points for antimalarial lead identification” (Nature, 2010).
# Whole data set: some 13,000 compounds, median “IFI” near 4, cut for the highest 2% near 17. The list shows a part of the results.
# Assay: GSK_TCMDC: Inhibition Frequency Index (IFI). The number of non-kinase HTS assays where a compound showed > 50 % inhibition, expressed as a percentage of the number of such assays in which the compound was tested (-0 is zero)
# Type: functional
row,Compound,IFI
1,CN1CCC(N(C)C(=O)C=Cc2cn(-c3ccccc3)nc2-c2cc3ccccc3o2)CC1,5.71%
2,CCCCNC(=O)[C@H](Cc1ccccc1)NC(=O)c1ccc(O)c(-c2ccc(Cl)c(Cl)c2)c1,3.68%
3,Cc1cccc(-c2nc3cc(NC(=O)c4ccc([N+](=O)[O-])o4)ccc3o2)c1,0.71%
4,Cc1cc(C(=O)Nc2ccc3c(c2)CCN3C2CCN(Cc3ccc(F)cc3Cl)C2)no1 (stereo not drawn),6.67%
5,Cc1cc(=O)c(-c2ccc(Oc3ccc(OC(F)(F)F)cc3)cc2)c(C)[nH]1,4.55%
6,COc1cc(-c2nc(-c3ccncc3)c(-c3ccc4c(c3)CCC4=NO)[nH]2)ccc1OCCN1CCN(C)CC1,4.14%
7,COc1cc2nc(N3CCC(CNC(=O)c4cc5ccccc5s4)CC3)nc(N)c2cc1OC,5.26%
8,O=C(Nc1cccc(CN2CCCN(Cc3ccc4c(c3)OCO4)CC2)c1)c1ccc(Cl)c(Cl)c1,6.71%
9,O=C(Nc1ccc(-c2cncc(NCCCN3CCCC3)c2)cc1)c1ccccc1,0%
10,O=C(Nc1ccccc1)N(Cc1ccccc1-c1cccc(CNCCc2ccccc2)c1)C1CCN(Cc2ccccc2)CC1,11.3%
11,O=C(/C=C/c1ccc([N+](=O)[O-])cc1)N1CCC(NS(=O)(=O)c2ccc(F)cc2)CC1,-0%
12,CC(=O)c1ccc(NC(=O)Nc2ccc3nccc(N4CCN(C)CC4)c3c2)cc1,-0%
13,Cc1ccccc1CNc1noc(-c2c(-c3ccccc3)noc2C)n1,3.03%
14,N=C(N)NC(=O)Nc1ccc(Cl)c([N+](=O)[O-])c1,0.75%
15,CCN(CC)CCCC(C)Nc1cc(C)nc2cc(Cl)ccc12 (stereo not drawn),0.8%
16,COc1ccc(NC(=O)/C=C/c2ccccc2Cl)cc1OCCN1CCN(c2ccncc2)CC1,2.1%
17,CC(=O)N(C)c1cccc(C(=O)Nc2cccc(-c3cccc(-c4nc5cc(C(F)(F)F)ccc5[nH]4)c3)c2)c1,5.26%
18,OC(CNCc1ccccc1OCc1ccccc1)c1cccc(C(F)(F)F)c1 (stereo not drawn),7.69%
19,O=C(Nc1cccc(CN2CCN(C(=O)c3cccc(Cl)c3)CC2)c1)c1ccco1,1.5%
20,FC(F)(F)c1ccc2[nH]c(-c3ccc(-c4ccc(CN5CCN(c6cnccn6)CC5)cc4)cc3)nc2c1,5.88%

row,Compound,IFI
1,COc1ccc(Cl)cc1N1CCN(CCCNC(=O)c2ccc(-c3nc4cc(Cl)c(F)cc4[nH]3)s2)CC1,2.13%
2,O=C(N[C@@H](Cc1ccccc1)C(=O)NCCN1CCCC1)c1ccc(O)c(-c2ccc(Cl)c(Cl)c2)c1,1.46%
3,O=C(Nc1cccc(CN2CCCN(CC3CCCCC3)CC2)c1)c1ccc(Cl)c(Cl)c1,2.72%
4,CCCc1cc(OC)c(CC2c3cc(O)c(Cl)cc3C(c3ccccc3)CN2C)cc1OC (stereo not drawn),3.23%
5,CCn1ccc2c(N3CCCCS3(=O)=O)cc(C(=O)N[C@@H](Cc3ccccc3)[C@H](O)CNC(C)(C)c3cccc(C(F)(F)F)c3)cc21,5.84%
6,CCCCCN1CCCC(CNS(=O)(=O)c2cccc(C(=O)Nc3ccc(C(F)(F)F)cc3)c2)C1 (stereo not drawn),7.23%
7,CCCc1cc(C)ccc1OCCCON1C(N)=NC(N)=NC1(C)C,6.29%
8,CC(CCc1ccccc1)NCC(O)c1ccc2c(c1)S(=O)(=O)c1ccccc1N2 (stereo not drawn),2.13%
9,CC(C)Oc1ccc(N2CCN(CCCCNC(=O)c3ccc(NC(=O)c4ccc(Cl)cc4)cc3)CC2)c(OC(C)C)c1,2.68%
10,C=CCOC(=O)N1CCC(CNCc2cccc(-c3cccc(-c4nc5ccccc5[nH]4)c3)c2)C1 (stereo not drawn),7.77%
11,CCC(CN1C(=N)NC(c2ccccc2)(c2ccccc2)C1=O)c1ccccc1 (stereo not drawn),9.62%
12,CCCCC(CC)NC(=O)[C@H]1CNCCN1C(=O)CCCc1ccccc1 (stereo partly drawn),1.44%
13,CCC(C)Oc1ccc2nc(N)nc(N)c2c1Cl (stereo not drawn),2.13%
14,Cc1cc(O)c(-c2cccc(Oc3ccc(Cl)cc3)c2)c(C)n1,1.54%
15,CS(=O)(=O)Cc1cccc(Nc2ncc(Cl)c(Nc3cccnc3C(N)=O)n2)c1,4%
16,Cc1[nH]c(C)c(-c2ccc(OCc3ccccc3C(F)(F)F)nc2)c(=O)c1Br,3.64%
17,CC(Nc1ccnc2cc(Cl)ccc12)c1ccc(S(N)(=O)=O)cc1 (stereo not drawn),1.47%
18,COc1cc2c(cc1S(=O)(=O)c1ccc(NC(=O)Nc3ccc(F)cc3)cc1)CCN(C)CC2,1.59%
19,Cc1noc(C)c1-c1ccc2c(Nc3ccc([N+](=O)[O-])cc3)c(C(N)=O)cnc2c1,1.63%
20,Oc1ccc(CCNc2nc(NCCCOc3ccccc3-c3cccnc3)nc(N3CCNCC3)n2)cc1,6.9%

row,Compound,IFI
1,C=CCc1cc(Br)ccc1OCCCOc1c(N)nc(N)nc1N,7.25%
2,NC(=O)COc1c(C2CCN(CCN3CCC(CNC(=O)c4ccc(-c5ccc(C(F)(F)F)cc5)cc4)CC3)CC2)ccc2c1CCCC2,5.43%
3,CN(C)c1cccc2c1nc(-c1ccco1)n2CCNCc1ccccc1,2.67%
4,Cc1n[nH]c2cc(Nc3nccc(Nc4ccc(Oc5ccccc5)cc4)n3)ccc12,3.73%
5,Cc1cccc2nc(-c3ccc(-c4ccc(CNCC5CCCO5)cc4)cc3)[nH]c12 (stereo not drawn),8.91%
6,CNC(=O)c1cc(NCCCNCc2ccc(Cl)c(C(F)(F)F)c2)nc2ccccc12,5.19%
7,CCOc1ccc(-c2nc(NC(=O)CS(=O)(=O)c3ccccc3)sc2C)cc1,2.91%
8,CC(OC(=O)c1ccc(C(=O)NCC2CC2)cc1)C(C)(C)C (stereo not drawn),0.76%
9,Cc1c(C(C)(C)C)ccc2nc(N)nc(N)c12,2.34%
10,CCn1c(-c2ccccc2)cc2nnc3ccccc3c21,2.99%
11,O=C1OC(c2cc3ccccc3n2S(=O)(=O)c2ccccc2)(c2cc3ccccc3n2S(=O)(=O)c2ccccc2)c2ccccc21,0%
12,COc1cc2nc(NCCc3ccccc3)nc(NCCc3ccccc3)c2cc1OC,9.77%
13,COc1ccc2ccccc2c1CNCCCCCCNCc1c(OC)ccc2ccccc12,9.93%
14,COc1cccc(C(=O)OC2=C3CCC(=O)C3(C)CCC2=O)c1 (stereo not drawn),1.4%
15,N=C(N)NN=Cc1cc2ccccc2c2ccccc12,4.29%
16,Cc1noc(C)c1-c1cccc(CNCc2ccc(-c3ccc(-c4nc5cc(C(F)(F)F)ccc5[nH]4)s3)cc2)c1,3.88%
17,CC(=O)Nc1cccc(Nc2nccc(-c3c(-c4cccc(NC(=O)c5c(F)cccc5F)c4)nn4ncccc34)n2)c1,7.97%
18,COc1cc(Nc2ccnc3ccc(C(F)(F)F)cc23)cc(OC)c1OC,2.92%
